The supplement of paper PMC3334620
Over roughly 33,000 sequences, “E-score (-0.5 to 0.5)” has its median near -0.041; the highest 2% begin near 0.37. This is one part of the list.

Target: T1, Ecm22 (UniProt Q05958)
T1 sequence: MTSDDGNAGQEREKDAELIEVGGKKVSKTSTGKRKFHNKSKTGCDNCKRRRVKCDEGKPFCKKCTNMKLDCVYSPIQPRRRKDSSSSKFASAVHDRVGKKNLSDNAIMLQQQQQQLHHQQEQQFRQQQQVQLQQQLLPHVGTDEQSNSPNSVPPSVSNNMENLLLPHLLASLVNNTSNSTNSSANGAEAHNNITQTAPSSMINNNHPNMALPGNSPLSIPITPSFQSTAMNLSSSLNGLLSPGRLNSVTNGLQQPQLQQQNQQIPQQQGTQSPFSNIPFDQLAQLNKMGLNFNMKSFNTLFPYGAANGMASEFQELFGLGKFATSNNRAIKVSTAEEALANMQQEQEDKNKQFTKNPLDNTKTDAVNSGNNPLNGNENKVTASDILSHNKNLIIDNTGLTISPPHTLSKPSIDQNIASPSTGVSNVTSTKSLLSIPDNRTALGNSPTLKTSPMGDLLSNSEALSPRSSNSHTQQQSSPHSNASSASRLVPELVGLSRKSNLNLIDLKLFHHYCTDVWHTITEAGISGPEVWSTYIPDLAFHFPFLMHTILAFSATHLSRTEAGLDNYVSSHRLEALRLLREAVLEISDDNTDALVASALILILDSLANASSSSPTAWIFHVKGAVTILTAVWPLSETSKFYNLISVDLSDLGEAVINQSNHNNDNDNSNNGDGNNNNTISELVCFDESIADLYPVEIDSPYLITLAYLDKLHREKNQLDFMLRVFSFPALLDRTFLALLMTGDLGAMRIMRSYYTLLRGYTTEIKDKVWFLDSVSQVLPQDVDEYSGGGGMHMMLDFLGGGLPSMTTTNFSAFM
Assay: PBM E-score (8-mer binding enrichment) (E-score (-0.5 to 0.5)); higher = stronger / more preferred TF binding; most listed sequences are background and not binding sites
Conditions: protein concentration: 200 nM; construct: GST-full length
Method in brief: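 Universal all-10-mer Agilent arrays, double-stranded by primer extension on fresh or once-stripped slides, were probed with about 100-200 nM GST-tagged yeast transcription factors made by PURExpress. Fluorescent anti-GST detected bound protein, and masliner normalised the scans. E-scores from the Universal PBM Analysis Suite were given to each ungapped eight-base word pooled with its reverse complement.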

Sequence	PBM E-score
AGAGGACA	-0.272
ATCTAACC	0.0109
GTGTCATA	-0.00652
CGAAGGCG	0.124
AATTGGCT	-0.133
ACTAAACT	-0.0221
CGTTTAAC	0.465
CGAGCTAG	0.138
ATGACAAA	-0.159
CCTGAGAG	-0.236
AAGCCACC	-0.194
ACCCGTTC	0.348
TATGTGCA	-0.0772
CGCTGACG	-0.21
TATAAACA	0.112
GTCTGCCA	-0.136
AATCTGCC	-0.177
GTCTCCGA	0.0202
ACTGGCCA	-0.206
AAATTAAA	0.0157
ACGAAACA	0.335
GCATCAGA	-0.18
AACGTCTT	0.054
GTACCCTA	0.128
AATTCTCT	-0.0437

Sequence	PBM E-score
GTCACAAA	0.0841
CCCCGGAG	-0.084
GCCGCTCC	0.0214
ACACCTGT	-0.0395
CAGTTTGA	-0.217
CGCTGCAA	0.0581
AAGGCGCT	-0.145
CCGTTCTC	0.0947
CGCAGCCG	-0.0691
AACTGCTG	-0.215
AGAGGGTA	-0.0925
AAATAGGA	-0.091
GATAATTA	0.0574
CACTGACG	-0.0105
CGCTCAAA	0.0592
CGTTAGCC	-0.139
TAAGCGGA	0.096
ACGCCACT	-0.0596
CAGAACTA	-0.0778
CCCAACCC	-0.155
AGTGTACG	0.389
AGCTACCG	-0.174
ATCCAATA	0.00338
AATTAAGT	-0.0891
CAGATCTG	-0.286

Sequence	PBM E-score
CGACAAAC	0.191
AATTCAGA	-0.0476
CGTCGTAC	0.486
ACTGGAGC	-0.223
GGCACGAA	0.0219
GGAATTCA	-0.126
ACAAAACT	-0.078
CAAAAGCG	0.0125
TGACCTCA	-0.255
CACGGGGG	-0.0702
CTTGGCAA	-0.142
GGAGTACA	-0.0403
CAATGCTG	-0.148
GTTGATCA	0.0958
CCAAAAGG	-0.364
GAATAGAC	-0.124
ACTGATGA	-0.0167
GAAACCGA	0.105
GTGGGTGA	-0.137
ACATAATA	0.204
CCTCAATC	-0.077
AATCTAGG	-0.0525
ACAGTGTG	-0.0799
AGCGTGTA	0.133
CTGCAAGC	-0.219

Sequence	PBM E-score
CCAGCAGA	-0.264
CATCGGAG	-0.214
CTGATCAA	-0.154
GCAAAGAC	-0.0631
AACAGACG	0.145
AAACTTCG	0.186
GCATTCAC	0.0443
ACATCGGC	-0.033
AAGAATAA	-0.159
ACAATAGT	-0.124
CTACATGC	0.161
AAGGAGCT	-0.152
ACTTGGAA	-0.0639
ACGGCAAG	0.0243
CCAGACGA	0.145
ATCTGGCA	0.0817
AATGCCAC	-0.183
AACTCAAG	-0.248
ACTTGGCG	-0.126
GCGACCCC	0.0448
AGTTGGTA	0.00654
CGAAAGCG	0.167
AATGGAAC	0.108
AAGAATAG	0.0585
ACCAGAGC	-0.0456

Sequence	PBM E-score
GGGACATA	-0.148
ATCTCATG	-0.101
CCTTGTCG	-0.0134
AGGGCTCC	-0.349
CGTGTCCA	-0.0797
GATTAAAC	0.242
ATGTCGTA	0.446
AGAACCTG	-0.00649
TAACGATA	0.367
AGGGCGGA	-0.248
ACCAAGTG	-0.104
AGGGACTC	-0.00412
TGATCGAA	0.0493
GTCGGCGA	0.0666
CAGCTCAG	-0.152
CCTGTCCC	0.0733
ATATTTCC	-0.0965
AATGGTGT	-0.0533
TATGCCGA	0.147
ACAGCCTC	0.0305
CATTTTAG	-0.00461
CGCTCCAC	0.198
TCTTTACA	-0.132
ATTCGAAG	0.0815
TAGAGCAA	-0.188

Sequence	PBM E-score
ATGGCATG	0.116
AGCTAAAA	-0.0878
GACCCTAC	-0.111
GGTCGAAA	-0.0972
AAGGCTGT	-0.199
CGCGGTAA	0.191
AGGGCCTC	-0.0981
ATAGCGAT	0.0467
GGTACTCA	-0.0835
GGTTCGTA	0.443
CCCTTCAC	-0.377
CTTTTGTC	-0.0686
TATCACAA	-0.00627
GCACCATA	-0.068
CTGCCGTA	0.274
GCCGAAAA	0.174
CTGTACGC	0.314
CTAGTGCA	-0.109
AGTCAACT	-0.0186
ACAAATTC	0.0192
CAATCGGC	-0.215
CAGTATTC	0.122
CACAATAA	-0.132
CCAAGCTC	0.0493
CCTGACAG	-0.217

Sequence	PBM E-score
GCCGCACC	0.032
GCCAAACA	-0.141
TGTGCCAA	-0.153
GCTCGGCC	0.0242
GCAAAGCA	-0.0481
CTATCGAC	-0.107
AATCGGGA	-0.141
CTCCCGTC	0.121
ACAGTACT	0.0175
AGGGCTCA	-0.212
AAGCTTGT	0.0175
CCTGATCC	0.025
CGAGCTTA	0.154
GCCGTCAA	-0.126
AAGGTTTG	-0.00626
AGCGACAA	0.139
GTTTGGCA	0.111
CTTCTGCC	0.0205
GACGGCTC	-0.00355
CTGGAGCA	-0.334
CCTATCTC	-0.117
TATGGCAA	-0.0965
